In PubChem BioAssay AID651820 (National Center for Advancing Translational Sciences (NCATS), 2012):
Hit rate of the full screen: of about 340,000 compounds, about 12,000 (3.5%) were called active. The inconclusive results got no clear call from the source; some entries with a clear call stand among them for comparison. Calls come from the whole dose curve; as a rule, active = well fitted inhibition curve with a large enough effect; inconclusive = small, poorly fitted or top-dose-only effect, or another doubt; inactive = no such curve, though single readings can be large or run the other way. Potencies of inconclusive entries are left out as doubtful fits.

Experiment: qHTS Assay for Inhibitors of Hepatitis C Virus (HCV)
Conditions: Huh7.5.1 HCVcc-Cre (HCVcc is cell-culture hepatitis C virus) infection, luciferase reporter, 44 h; series mostly up to 41.8 µM
How it was run: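 Reporter virus HCVcc-Cre (~0.5 moi) infects cells exposed to compound; seeding density 1,000 cells/well with 4 h settling beforehand. Luminescence, 15 sec read, taken 44 h post-infection following a 15 min RT substrate incubation.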
Potency is the fitted concentration of half-maximal effect; tags give direction and shape of the fitted curve.

SMILES	Potency
c1cc(SC2CCCCC2)cc(-c2nc3cnccn3c2NC2CCCCC2)c1	inconclusive [inhibitor, full curve, poor fit]
CNc1nc(SCc2ccccc2Cl)nc2c1CCCC2	active: 7.08 µM
O=C(NC1=CC(=O)c2ccccc2C1=O)c1ccccc1	active: 6.31 µM
Cc1ccc(C(=O)NCc2nnc(SCC(=O)Nc3sc4c(c3C#N)CCCC4)n2C)cc1	inconclusive [inhibitor, partial curve, poor fit]
CCO[C@H]1OC(C(=O)NCc2ccccc2)=C[C@@H](C(C)(C)C)[C@@H]1CCCO	inactive
CCn1c2ccccc2c2cc(NC(=O)CC(C)=O)ccc21	active: 12.6 µM
Cc1ccc(NC(=O)c2ccc3c(=O)n4c(nc3c2)CCC4)cc1S(=O)(=O)N(C)C	inconclusive [inhibitor, full curve]
COC(=O)CNC(=O)c1cn(-c2ccc(C)c(C)c2)c(=O)c2ccccc12	inactive
CCOC(=O)C1(Cc2cccc(OC)c2)CCN(Cc2ccc(OC)c(O)c2)CC1	inconclusive [inhibitor, single point]
O=NN(CCc1ccncc1)c1ccc(OCc2ccccc2)cc1	inconclusive [inhibitor, full curve]
Nc1c(C(=O)NCc2ccco2)c2nc3ccccc3nc2n1Cc1ccccc1	inconclusive [inhibitor, single point]
CN(C(=O)c1cc(S(=O)(=O)N2CCc3ccccc32)cn1C)C1CCCCC1	inconclusive [inhibitor, single point]
OCCCNc1c2ccccc2nc2ccccc12	active: 11.2 µM
Cc1nn(-c2ccccc2)c(Cl)c1/C=N/NC(=O)c1ccnn1C	inactive
COc1ccc(C2C3=C(CC(C)(C)CC3=O)Oc3ncn(Cc4ccco4)c(=N)c32)cc1 (stereo not drawn)	inconclusive [inhibitor, partial curve]
Cc1cc(C)n2nc(SCC(=O)NCc3ccco3)nc2n1	inconclusive [inhibitor, single point]
COc1ccc(Br)cc1/C=N/N1CCN(Cc2ccccc2)CC1	inconclusive [inhibitor, single point]
CCOc1ccc(C(C)NC(=S)NCc2ccc(F)cc2)cc1 (stereo not drawn)	inconclusive [inhibitor, single point]
Cc1ccc(C)c(Nc2cc(C)nc3ccccc23)c1	inconclusive [inhibitor, single point]
Cc1ccc2c(c1)C1CN(C)CCC1N2S(=O)(=O)c1ccccc1 (stereo not drawn)	inactive
CN(CC(=O)Nc1cccc2c1CCCC2)S(=O)(=O)c1ccc(Cl)cc1	inconclusive [inhibitor, partial curve, poor fit]
COc1ccc(C(=O)NC2CCCc3ccccc32)c(OC)c1OC (stereo not drawn)	inconclusive [inhibitor, single point]

SMILES	Potency
Cc1ccc2nc(NC3=NCN(Cc4cccnc4)CN3)nc(C)c2c1	inconclusive [inhibitor, single point]
CCN(CC(=O)Nc1ccccc1C(F)(F)F)C(=O)c1ccc2[nH]c3c(c2c1)CC(C)CC3 (stereo not drawn)	inconclusive [inhibitor, single point]
O=C(COc1ccc(Cl)cc1Br)NCC(c1ccco1)N1CCCC1 (stereo not drawn)	inconclusive [inhibitor, single point]
Cc1ccc(O)c(CNCCNCc2cc(C)ccc2O)c1	inconclusive [inhibitor, single point]
CCn1nc(C)cc1C(=O)Sc1cccc(Cl)c1	inactive
CC(=O)c1ccc(N2CCN(C(=O)c3ccc(Cn4c(=S)[nH]c5ccc(N6CCOCC6)cc5c4=O)cc3)CC2)cc1	inconclusive [inhibitor, single point]
Cc1cc(/C([O-])=C(/C(=S)Nc2ccc(F)cc2)[n+]2ccccc2)c(C)n1Cc1ccccc1Cl	inconclusive [inhibitor, single point]
O=c1cc(C(F)F)oc2c1ccc1ccccc12	inconclusive [inhibitor, partial curve]
Cc1cccc(S(=O)(=O)NCCNS(=O)(=O)c2cccc(C)c2)c1	inconclusive [inhibitor, single point]
Cc1cc(F)ccc1S(=O)(=O)Nc1ccccc1C(=O)NC1CCN(Cc2ccccc2)CC1	inconclusive [inhibitor, single point]
O=[N+]([O-])c1ccc(N/N=C/c2cccc(O)c2)cc1	inconclusive [inhibitor, single point]
CCn1c2ccccc2c2cc(NC(=O)CSc3nnc(-c4ccccc4OC)n3N)ccc21	inconclusive [inhibitor, partial curve]
Cc1occc1-c1nnc(SCC(=O)Nc2ccccc2)n1C	inactive
Fc1cccc(NCc2cn3ccccc3n2)c1	inactive
O=C(C=Cc1ccccc1)CC(c1ccccc1)N1CCOCC1 (stereo not drawn)	inconclusive [inhibitor, single point]
CCN(CC)CCOC(=O)c1ccc(NC(=O)c2ccc(Cl)c(S(=O)(=O)N3CCCCCC3)c2)cc1	inconclusive [inhibitor, single point]
CCOc1ccc(CCNC(=O)C2CC(=O)N(c3ccc4c(c3)OCCO4)C2)cc1OCC (stereo not drawn)	inconclusive [inhibitor, partial curve]
COc1ccc(C(=O)NCC(C)(C)N2CCOCC2)cc1S(=O)(=O)NCc1ccc(Cl)cc1	inconclusive [inhibitor, single point]
N#Cc1ccc(CSC2=NCCN2)cc1	inconclusive [inhibitor, partial curve]
CC1C/C(=N\NC(=O)c2cccnc2)CC(C)(C)C1 (stereo not drawn)	inactive
CCOc1cc(C(=O)Nc2ccc3c(c2)OCO3)ccc1OC(F)F	inconclusive [inhibitor, partial curve]
